Measured values published in PubChem BioAssay AID1240 (Sanford-Burnham Center for Chemical Genomics, 2008).
About 800 (1.6%) of roughly 50,000 compounds showed an effect of 50% or more. The list shows a part of the results.

Target: Bcl-2-like protein 10 (Homo sapiens) (UniProt Q9HD36)
Experiment: TR3 peptide-Bcl-B binding displacers, biochemical primary FP assay, phenotype converters (AID 1240);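 also: 0% = Bcl-B with tracer peptide and DMSO and 100% = tracer peptide lacking Bcl-B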
Conditions: GST-Bcl-B / FITC-TR3 peptide fluorescence polarization; stronger effect = higher value; compound at 3.75 mg/L

Chain of UniProt Q9HD36 (Q9HD36 whole entry, looked up): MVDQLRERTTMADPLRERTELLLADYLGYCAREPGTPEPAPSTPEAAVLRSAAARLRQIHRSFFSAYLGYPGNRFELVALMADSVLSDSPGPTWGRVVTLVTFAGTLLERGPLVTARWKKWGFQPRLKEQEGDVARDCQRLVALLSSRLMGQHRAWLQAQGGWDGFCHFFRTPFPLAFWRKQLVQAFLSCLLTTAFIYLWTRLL

Row | SMILES | displacement
1 | Cc1ccc(C(=O)/C=C/Nc2ccc(Cl)c(Cl)c2)cc1 | 126%
2 | COc1cc(C=Nc2ccc(Nc3ccccc3)cc2)cc([N+](=O)[O-])c1O | 14.2%
3 | CCc1ccc(NC(=O)c2nn3c(c2Br)NC(c2ccccc2)CC3C(F)(F)F)cc1 (stereo not drawn) | 7.7%
4 | CC(=O)C1C(=O)c2cc([N+](=O)[O-])ccc2C1=Nc1ccccc1C (stereo not drawn) | 12.1%
5 | CCOC(=O)c1c(NC(=O)c2cccc(Cl)c2)sc(C(=O)Nc2cccc(C(F)(F)F)c2)c1C | -3.3%
6 | C=CCOc1ccc(C(c2c(C)[nH]n(-c3ccccc3)c2=O)c2c(C)[nH]n(-c3ccccc3)c2=O)cc1 | -1.5%
7 | O=c1c2c(nc3cc(-c4ccc(F)cc4)[nH]n13)CCCC2 | -5.8%
8 | Cc1ccc(C(=O)NCCCN2CCOCC2)c2ccccc12 | -1.8%
9 | COc1cc(C(=O)Nc2cccc(S(N)(=O)=O)c2)cc(OC)c1OC | 8.8%
10 | Cn1c(O)c(N=NC(=O)c2ccccc2NC(=O)c2ccccc2)c2ccccc21 | -4%
11 | Cc1cc(C)c(NC(=O)C(C)SCC(=O)Nc2ccccc2)c(C)c1 (stereo not drawn) | -10.7%
12 | CCOc1ccc(/C=C2/NC(=S)NC2=O)cc1Cl | -2.6%
13 | Cc1nc2cc(S(=O)(=O)N(C)C)ccc2n1-c1ccccc1 | 13.9%
14 | CC(C)NC(=O)COc1ccc(/C=N/NS(=O)(=O)c2ccccc2)cc1 | -9.8%
15 | CCn1c2ccccc2c2nnc(N/N=C/c3ccccc3O)nc21 | -9.1%
16 | CC(C)(C)NC(=O)CN1C(=O)/C(=C/c2ccccc2)SC1=S | 10.7%
17 | CCOC(=O)c1cn(CC)c2cc(Cl)c(-c3ccco3)c(Cl)c2c1=O | 9.8%
18 | O=C(O)C1CCCCC1C(=O)Nc1ccc(-c2ccccc2)cc1 (stereo not drawn) | -10.4%
19 | O=C1c2ccccc2C(=O)N1Cc1nc2ccccc2c(=O)n1CCCn1ccnc1 | 2.4%
20 | COc1ccc(/C=C(/NC(=O)c2cc(OC)c(OC)c(OC)c2)C(=O)NC(C(=O)O)C(C)C)c(OC)c1 (stereo not drawn) | 2.5%
21 | COc1cc(/C=c2\sc3nc4ccccc4n3c2=O)cc(Br)c1OCc1ccccc1F | 13.9%
22 | COc1ccc(CC(=O)O/N=C(\N)c2ccncc2)cc1OC | 9.1%

Row | SMILES | displacement
23 | C(=N\Nc1ncnc2sc3c(c12)CCC3)/c1ccco1 | -25.8%
24 | O=C(/C=C/c1ccccc1Cl)NC1CC2CCC1C2 (stereo not drawn) | 1.4%
25 | O=[N+]([O-])c1ccccc1S(=O)(=O)Oc1ccccc1/C=N/n1cnnc1 | -11.3%
26 | O=C(Nc1cccc(Cl)c1Cl)C(O)(c1ccccc1)c1ccccc1 | 2.6%
27 | Cc1ccc(N2CCSC2c2ccco2)cc1 (stereo not drawn) | 1.4%
28 | COc1ccc(C(=O)NNC(=O)c2ccccc2[N+](=O)[O-])cc1 | -4.4%
29 | COc1ccc(C(C)=O)cc1N1C(=O)C2C3C=CC(C3=C(c3ccccc3)c3ccccc3)C2C1=O (stereo not drawn) | 2.3%
30 | Cc1nn2c3ccccc3n(C)c2c1C(=O)NN | -4.4%
31 | Cc1[nH]c2c(Cl)cccc2c(=O)c1CN1CCN(C)CC1 | 0.6%
32 | CCc1cc(OCCOCCN2CCC(C)CC2)ccc1Cl | -4.1%
33 | Cc1ccc(/C=N/n2c(C)nnc2C)cc1 | -6%
34 | Cc1ccc(C(=O)Nc2cccc([N+](=O)[O-])c2)o1 | 11.2%
35 | CC12c3ccccc3C(C)(c3ccccc31)C1C(=O)N(c3ccc(Cl)c(C(=O)O)c3)C(=O)C12 (stereo not drawn) | 6.1%
36 | COc1ccc(C2CC(c3ccccc3)=NN2c2ccc([N+](=O)[O-])cc2)cc1 (stereo not drawn) | -6.4%
37 | NC(=O)c1c(NC(=O)c2cccc(Oc3ccccc3)c2)sc2c1CCCC2 | -4.2%
38 | CCn1c2c(c3cc(C)ccc31)CCCC2=O | 9.5%
39 | O=C(Nc1ccc(Cl)cc1)Oc1ccccc1[N+](=O)[O-] | 0%
40 | Cc1c(C(=O)NCCO)c(-c2ccccc2)nn1-c1ccccc1 | 14.9%
41 | Cc1cc(C)c2nc3s/c(=C\c4cc5c(cc4[N+](=O)[O-])OCO5)c(=O)n3c2c1 | -4.7%
42 | Cc1ccc(N(CC(=O)O)S(C)(=O)=O)cc1Cl | -3.5%
43 | CCOC(=O)C1=C(O)/C(=C/c2cc(OC)c(OC)c(OC)c2)SC1=Nc1ccccc1 | -14.2%
44 | COc1ccc(C(CC(=O)c2ccc(Cl)cc2)Nc2ccc(Br)cc2)cc1 (stereo not drawn) | -7.3%

Row | SMILES | displacement
45 | C=CCOCC(O)CSCc1ccc(Cl)cc1 (stereo not drawn) | -1.9%
46 | COC(=O)c1ccc(NC(NC=O)C(Cl)(Cl)Cl)cc1 (stereo not drawn) | 3%
47 | COc1cc(/C=C/c2[nH]c(=O)[nH]c(=O)c2[N+](=O)[O-])cc(Br)c1OCc1ccccc1 | 15.6%
48 | O=C1/C(=C\c2ccccc2OS(=O)(=O)c2ccccc2[N+](=O)[O-])SC(=S)N1c1ccccc1 | 2.3%
49 | O=C(/C=C\c1ccccc1)Nc1cccc(NC(=O)c2ccco2)c1 | 5.2%
50 | O=S(=O)(Cc1ccccc1)c1nc2ccccc2n1Cc1ccc(Cl)cc1 | 1.8%
51 | O=C(c1cc(F)c(F)cc1Cl)N1CCN(c2cc(N3CCCCC3)c(F)cc2[N+](=O)[O-])CC1 | -9.6%
52 | O=C(c1ccc(Cl)c(Cl)c1)N1CCN(C/C=C/c2ccccc2)CC1 | -3.2%
53 | COc1ccc2oc(-c3ccccc3)c(C(=O)Nc3nccs3)c2c1 | 5.4%
54 | Cc1cc(C)nc(SCC(=O)Nc2ccc(Cl)c(Cl)c2)n1 | 4%
55 | CN(C)CCCNC(=O)c1ccccc1Oc1ccccc1 | -3.1%
56 | CS(=O)(=O)N(CC(=O)Nc1cccc(Br)c1)c1ccc(Oc2ccccc2)cc1 | 1.9%
57 | CN(C)c1ccc(/C=C2\SC(=S)NC2=O)cc1Br | 7%
58 | Cc1cc(Cl)ccc1NS(=O)(=O)c1ccc(Cl)cc1 | -7.4%
59 | CCCC(=O)Nc1cccc(NC(=S)NC(=O)c2ccccc2Cl)c1 | -6.3%
60 | Oc1ccc(/C=N/Nc2cc(N3CCOCC3)nc(N3CCOCC3)n2)cc1 | 25%
61 | COc1ccc(C(=O)CSc2nc(C)cc(C)n2)cc1[N+](=O)[O-] | 12.6%
62 | CCCCNC(=S)Nc1ccc(Cl)cc1Cl | -4.5%
63 | C=CCN1C(=O)/C(=C/c2ccc(Br)cc2)S/C1=N\c1nnc(CC)s1 | 3.1%
64 | Cc1cccc(C)c1NC(=O)CN(c1ccc(F)cc1)S(=O)(=O)c1ccccc1 | -11.5%
65 | COc1ccc(/C=C/C(=O)NC(=S)Nc2ccc(S(=O)(=O)N=C(N)N)cc2)cc1 | 9.6%
66 | O=C(Nc1ccccc1I)c1cc(-c2ccccc2)nc2ccccc12 | -3.4%

Row | SMILES | displacement
67 | O=C(N/N=C\c1c(Cl)cccc1Cl)c1cnccn1 | -7.9%
68 | CCOC(=O)/C(C#N)=C/Nc1ccccn1 | -4.8%
69 | CC1CCN(c2cc(N3CCN(C(=O)c4cccc(F)c4F)CC3)c([N+](=O)[O-])cc2F)CC1 | -11.1%
70 | S=C(NCCN1CCOCC1)Nc1ccccc1 | -8.1%
71 | COc1ccc(OC)c(/C=C2/C(=O)ON=C2c2ccccc2)c1 | 10.5%
72 | Cc1ccc(-c2[nH]n3c(=O)c(C)c(C)nc3c2C)cc1 | -10.4%
73 | O=C(NN1C(=O)c2ccccc2C1=O)c1ccccc1Br | 10.4%
74 | CCC(NC(=O)c1ccccc1NC(=O)c1ccco1)C(=O)O (stereo not drawn) | 0%
75 | O=C(Nc1cccc(C(=O)c2ccccc2)c1)c1ccc(Cl)cc1 | 16.1%
76 | COc1ccc(N2C(=O)/C(=C/c3cc([N+](=O)[O-])cc(OC)c3O)SC2=S)cc1 | 1.4%
77 | CCOc1ccccc1NC(=O)CN(c1cc(Cl)cc(Cl)c1)S(C)(=O)=O | -1.3%
78 | CC1=C(C(=O)OCc2ccccc2)C(c2ccc(C)s2)NC(=O)N1 (stereo not drawn) | -13.2%
79 | O=C1OCC2=C1C(c1ccc3c(c1)OCO3)Sc1ccccc1N2 (stereo not drawn) | -5.1%
80 | COc1ccccc1/C=C(\C#N)C(N)=O | -10%
81 | COc1cccc(-n2c(O)c(/C=C3\C(C)=Nc4ccccc43)c(=O)[nH]c2=O)c1 | 16.5%
82 | CC(C)CN1C(=O)/C(=C/c2ccc([N+](=O)[O-])cc2)SC1=S | 11.2%
83 | O=[N+]([O-])c1ccccc1C1N(c2ccccc2)CCN1c1ccccc1 | 1.4%
84 | CCSc1nnc2n(-c3ccc(C)cc3)c(=O)c3c4c(sc3n12)CCCC4 | 3.6%
85 | CCOc1ccccc1C1C(C(=O)OCc2ccc(OC)cc2)=C(C)NC2=C1C(=O)CC(C)(C)C2 (stereo not drawn) | -3.4%
86 | O=C(c1cccc(Cl)c1)N1CCN(Cc2ccccn2)CC1 | -14.7%
87 | CCOC(=O)c1c(N)sc(C)c1-c1ccc(Cl)cc1 | 5.1%
88 | O=C(NC(N1CCCCC1)C(Cl)(Cl)Cl)c1ccc(Cl)cc1Cl (stereo not drawn) | 15.7%

Row | SMILES | displacement
89 | Cn1c(/C=C/c2ccco2)nc2ccccc21 | 35.7%
90 | Cn1c(N)c(/C=N/Nc2ccccc2)c(=O)n(C)c1=O | 0.4%
91 | COC(=O)CN1C(=O)C(=Cc2cccc(OCc3ccccc3)c2)SC1=S | 1.9%
92 | C#CCOc1ccc(/C=C2\C(=O)NC(=O)N(c3ccc(C)cc3)C2=O)cc1OC | -1.5%
93 | CCOc1ccc(S(=O)(=O)Nc2c(C)n(C)n(-c3ccccc3)c2=O)cc1 | 12.9%
94 | CN1C(=O)/C(=C\c2ccsc2)SC1=S | 13.2%
95 | CCOC(=O)C1=C(C)NC(C)=C(C(=O)OCC)C1c1ccc(C)cc1 | 3.2%
96 | O=C(CN(c1cccc(Br)c1)S(=O)(=O)c1ccccc1)Nc1ccccc1Cl | 4.5%
97 | COc1ccc(Cc2cnc(NC(=O)c3ccc(C)cc3)s2)cc1 | -1.7%
98 | Cc1ccc([N+](=O)[O-])cc1NC(=O)C12CC3CC(CC(C3)C1)C2 | 1.4%
99 | N/C(=N\OC(=O)c1cccs1)c1cccc([N+](=O)[O-])c1 | -0.9%
100 | Cc1c(N2C(=O)c3cccc([N+](=O)[O-])c3C2=O)c(=O)n(-c2ccccc2)n1C | -1.7%
101 | CC(=O)c1ccc(N/C(=N/S(=O)(=O)c2ccccc2)c2ccccc2)cc1 | 11.1%
102 | CCOP(=O)(CC(=O)NNC(=O)Nc1ccccc1)OCC | -6.2%
103 | Cc1ccc(CNC(=O)c2cccc([N+](=O)[O-])c2)cc1 | 13.7%
104 | CCc1ccc(C2C(C(=O)OC)=CN(Cc3ccc(C)cc3)C=C2C(=O)OC)s1 | 4.1%
105 | CCOC(=O)C(C(C)=O)(N1CCOCC1)N1CCOCC1 | -1.8%
106 | CN1C(=O)/C(=C\c2cc(Cl)c(O)c(Cl)c2)SC1=S | 8.3%
107 | C#CCOc1c(I)cc(I)cc1/C=N/NC(N)=S | -14.2%
108 | Cc1cccc(NC(=O)CN(c2ccc(Br)cc2)S(C)(=O)=O)c1 | 23.9%
